Assay results published in article PMC2946606.
No constants are given. Whether binding was seen depends on the method and setting. Binding seen in cells or lysates may run through a third protein. Some binding calls cover weakened binding; strength is not graded here. For part of these data: Tags and fused reporters may be left off the sequences shown.

By UniProt entry, the sequences of proteins in these tests, tags left out. Residues count along the entry.
GST-Med1 fragment aa 740–860 (Q925J9, residues 740-860): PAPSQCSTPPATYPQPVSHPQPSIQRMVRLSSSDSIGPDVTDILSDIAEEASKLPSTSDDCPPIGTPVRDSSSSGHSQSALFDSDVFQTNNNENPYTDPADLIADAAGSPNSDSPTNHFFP
GST-Med1 fragment aa 860–980 (Q925J9, residues 860-980): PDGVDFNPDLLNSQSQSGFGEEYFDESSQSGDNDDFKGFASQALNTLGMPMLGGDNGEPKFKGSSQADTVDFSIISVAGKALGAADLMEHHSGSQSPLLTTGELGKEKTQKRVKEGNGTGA
UniProt Q92616: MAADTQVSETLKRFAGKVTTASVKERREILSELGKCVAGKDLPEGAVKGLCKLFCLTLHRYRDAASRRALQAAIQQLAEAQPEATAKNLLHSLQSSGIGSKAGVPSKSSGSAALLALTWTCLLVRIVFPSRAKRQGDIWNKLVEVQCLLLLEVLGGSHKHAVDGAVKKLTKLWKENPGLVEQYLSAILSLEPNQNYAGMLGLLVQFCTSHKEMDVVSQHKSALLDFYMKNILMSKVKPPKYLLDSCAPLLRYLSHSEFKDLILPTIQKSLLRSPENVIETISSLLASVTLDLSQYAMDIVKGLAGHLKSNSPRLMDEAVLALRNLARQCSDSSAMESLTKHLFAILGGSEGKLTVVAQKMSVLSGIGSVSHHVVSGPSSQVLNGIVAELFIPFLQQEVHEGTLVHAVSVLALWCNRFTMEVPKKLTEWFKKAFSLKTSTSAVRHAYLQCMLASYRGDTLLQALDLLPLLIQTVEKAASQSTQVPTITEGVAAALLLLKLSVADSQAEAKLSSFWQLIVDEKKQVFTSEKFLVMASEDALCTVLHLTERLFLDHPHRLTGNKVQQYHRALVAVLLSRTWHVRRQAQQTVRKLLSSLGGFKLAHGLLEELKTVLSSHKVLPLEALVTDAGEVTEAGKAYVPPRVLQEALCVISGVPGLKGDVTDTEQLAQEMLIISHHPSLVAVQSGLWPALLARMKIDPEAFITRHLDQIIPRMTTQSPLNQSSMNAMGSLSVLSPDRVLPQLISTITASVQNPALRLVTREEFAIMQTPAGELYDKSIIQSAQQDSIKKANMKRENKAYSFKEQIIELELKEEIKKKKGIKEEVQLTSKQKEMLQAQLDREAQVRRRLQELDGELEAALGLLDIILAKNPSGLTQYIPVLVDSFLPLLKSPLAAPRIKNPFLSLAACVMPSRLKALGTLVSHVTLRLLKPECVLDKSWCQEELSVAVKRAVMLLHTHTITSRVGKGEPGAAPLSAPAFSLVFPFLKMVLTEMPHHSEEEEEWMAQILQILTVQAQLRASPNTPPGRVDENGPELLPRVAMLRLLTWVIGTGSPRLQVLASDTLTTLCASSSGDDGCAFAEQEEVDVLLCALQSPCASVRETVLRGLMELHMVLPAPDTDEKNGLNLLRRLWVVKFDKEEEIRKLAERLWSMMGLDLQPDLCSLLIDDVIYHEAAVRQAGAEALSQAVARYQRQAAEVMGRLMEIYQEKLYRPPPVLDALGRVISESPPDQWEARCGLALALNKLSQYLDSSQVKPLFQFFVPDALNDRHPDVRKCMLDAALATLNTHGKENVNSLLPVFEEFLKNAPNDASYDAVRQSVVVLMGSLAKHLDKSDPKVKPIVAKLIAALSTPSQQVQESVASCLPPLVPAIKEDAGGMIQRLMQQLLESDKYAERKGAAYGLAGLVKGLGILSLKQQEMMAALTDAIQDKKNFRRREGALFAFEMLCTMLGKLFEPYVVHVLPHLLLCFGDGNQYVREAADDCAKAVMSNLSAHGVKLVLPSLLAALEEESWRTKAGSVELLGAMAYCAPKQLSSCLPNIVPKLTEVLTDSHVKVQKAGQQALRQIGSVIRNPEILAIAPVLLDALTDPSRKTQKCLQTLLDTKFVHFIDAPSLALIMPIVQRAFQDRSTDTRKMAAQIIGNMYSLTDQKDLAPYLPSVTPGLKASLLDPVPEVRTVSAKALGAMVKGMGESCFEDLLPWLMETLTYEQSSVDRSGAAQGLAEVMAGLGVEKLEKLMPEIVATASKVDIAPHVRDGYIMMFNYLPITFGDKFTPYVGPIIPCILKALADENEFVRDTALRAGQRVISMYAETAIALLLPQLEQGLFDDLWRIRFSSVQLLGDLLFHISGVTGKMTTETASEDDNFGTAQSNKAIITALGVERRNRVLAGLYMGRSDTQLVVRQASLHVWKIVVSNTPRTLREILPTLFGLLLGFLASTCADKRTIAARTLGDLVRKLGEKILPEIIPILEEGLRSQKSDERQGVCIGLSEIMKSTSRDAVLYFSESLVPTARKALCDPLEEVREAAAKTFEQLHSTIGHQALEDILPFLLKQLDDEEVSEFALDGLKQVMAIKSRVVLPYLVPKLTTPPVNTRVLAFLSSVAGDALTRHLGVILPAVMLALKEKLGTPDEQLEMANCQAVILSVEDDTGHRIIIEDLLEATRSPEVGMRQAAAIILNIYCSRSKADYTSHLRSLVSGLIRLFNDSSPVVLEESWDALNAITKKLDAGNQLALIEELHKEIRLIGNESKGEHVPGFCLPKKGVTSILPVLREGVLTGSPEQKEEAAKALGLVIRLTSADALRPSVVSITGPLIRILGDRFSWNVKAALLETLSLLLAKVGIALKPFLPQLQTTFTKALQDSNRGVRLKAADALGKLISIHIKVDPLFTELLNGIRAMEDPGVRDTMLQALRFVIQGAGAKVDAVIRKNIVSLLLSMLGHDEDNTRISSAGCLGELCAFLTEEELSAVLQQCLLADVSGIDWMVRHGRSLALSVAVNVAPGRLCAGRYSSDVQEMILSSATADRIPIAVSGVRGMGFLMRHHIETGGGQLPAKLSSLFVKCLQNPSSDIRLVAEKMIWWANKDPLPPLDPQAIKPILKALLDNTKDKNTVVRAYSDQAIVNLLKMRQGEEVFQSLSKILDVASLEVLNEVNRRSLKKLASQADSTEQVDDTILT

Assays:
Experiment in all cases: pull-down; GST or GST-fusion protein on glutathione sepharose 4B beads, incubated with in vitro translated 35S-methionine PRIC295 or its fragments, 4°C, 2 hours, gentle shaker; washed, SDS-PAGE, autoradiography; nuclear receptors without and with receptor-specific ligand (10 μM to 100 μM); only the target purified
[1] = molecular target: GST-Med1 fragment aa 740–860 (UniProt Q925J9)
[2] = molecular target: GST-Med1 fragment aa 860–980 (UniProt Q925J9)
[3] = molecular target: T1, Med24 (construct of the GST-pulldown of Figure 9(c)) (UniProt O75448)
T1 sequence: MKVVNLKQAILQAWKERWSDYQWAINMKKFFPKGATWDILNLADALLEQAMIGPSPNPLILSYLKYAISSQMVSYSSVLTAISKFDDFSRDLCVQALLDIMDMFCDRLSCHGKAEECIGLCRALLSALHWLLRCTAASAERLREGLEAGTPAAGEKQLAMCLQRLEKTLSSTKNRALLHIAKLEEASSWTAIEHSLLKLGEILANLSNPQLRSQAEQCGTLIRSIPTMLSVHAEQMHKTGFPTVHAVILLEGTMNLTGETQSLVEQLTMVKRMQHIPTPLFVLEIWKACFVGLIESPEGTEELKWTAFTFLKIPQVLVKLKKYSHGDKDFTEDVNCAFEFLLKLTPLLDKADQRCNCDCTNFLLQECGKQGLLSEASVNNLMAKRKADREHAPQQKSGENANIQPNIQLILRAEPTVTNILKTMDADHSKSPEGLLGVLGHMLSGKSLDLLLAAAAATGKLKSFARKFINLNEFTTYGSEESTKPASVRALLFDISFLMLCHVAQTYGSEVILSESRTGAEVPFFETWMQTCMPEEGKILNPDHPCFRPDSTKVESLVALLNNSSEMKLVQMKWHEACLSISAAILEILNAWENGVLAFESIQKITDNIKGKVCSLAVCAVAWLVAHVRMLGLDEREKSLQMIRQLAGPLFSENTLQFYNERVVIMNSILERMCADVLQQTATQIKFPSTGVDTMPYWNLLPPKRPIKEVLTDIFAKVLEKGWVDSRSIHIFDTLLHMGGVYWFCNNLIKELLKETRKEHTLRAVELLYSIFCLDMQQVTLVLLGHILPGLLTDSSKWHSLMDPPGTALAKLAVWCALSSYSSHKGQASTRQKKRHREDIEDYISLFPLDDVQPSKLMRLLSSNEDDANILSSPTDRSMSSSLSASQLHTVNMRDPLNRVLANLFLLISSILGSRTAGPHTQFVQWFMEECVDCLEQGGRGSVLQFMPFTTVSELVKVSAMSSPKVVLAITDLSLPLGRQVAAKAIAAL

“PRIC295 (PPARα-interacting cofactor 295), full-length, in vitro translated (from UniProt Q92616 1-2671)” was tested, and the binding [1] was “no binding”, the binding [2] was “no binding” and the binding [3] was “binds”.
